# Some of the results follow.
# Biological target: T1, OsWOX13 (Oryza sativa, UniProt Q5QMM3 1-267)
# T1 sequence: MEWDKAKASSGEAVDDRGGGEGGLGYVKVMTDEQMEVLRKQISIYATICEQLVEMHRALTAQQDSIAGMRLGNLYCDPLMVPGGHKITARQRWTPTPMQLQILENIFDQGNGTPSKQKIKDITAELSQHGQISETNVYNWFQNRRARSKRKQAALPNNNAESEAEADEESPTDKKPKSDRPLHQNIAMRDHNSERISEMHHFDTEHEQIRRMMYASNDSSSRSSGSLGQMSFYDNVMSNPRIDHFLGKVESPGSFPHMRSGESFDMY
# Assay: protein-binding microarray (RPBM); PBS, 2% BSA, 51.3 ng/ul salmon testes DNA, 50 uM zinc acetate, 200 nM TF, 25 C, 1 h; high values mean tight binding
# Settings: protein: recombinant; tags: N-terminal polyhistidine and DsRed monomer fusion (pET32a); label: CyDye5-dUTP incorporated in the synthesized complementary strand; 3' TTTTT single-stranded linker to array surface; dsDNA, one strand shown
# Method in brief: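 The binding signal is fluorescence intensity per feature, in arbitrary units, read on an Axon 4000B scanner. Polyhistidine- and DsRed-tagged transcription factors (N-terminal fusions) from E. coli BL21-CodonPlus were purified on Ni–NTA and applied at 200 nM for 1 h at 25 °C to a double-stranded, BSA-blocked custom Agilent array in buffer with 50 µM zinc acetate.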
row,Sequence,binding signal
1,CCTGATAATCCTGTCTAGATTGCTCCATCCTGGTGCTTGGCGGAGTCACCTAGTGCAG,10100 fluorescence intensity (a.u.)
2,TCTCAATCATTTATACTACACTAATTAACCAAGGTCATATCGGAGTCACCTAGTGCAG,27100 fluorescence intensity (a.u.)
3,CATACCCATATAATTGACTTGTAGCATTTATAGTTTTGTACGGAGTCACCTAGTGCAG,5530 fluorescence intensity (a.u.)
4,TATATATATATATATATATATATCCAGCTAATCTCTCTCCCGGAGTCACCTAGTGCAG,23200 fluorescence intensity (a.u.)
5,AGTCCTTTAATCTAAATAATTTTGGTCGGCGTTACTTTATCGGAGTCACCTAGTGCAG,4040 fluorescence intensity (a.u.)
6,TGCTAATGAATCTAGACATATAATTAGCATCAATATAAATCGGAGTCACCTAGTGCAG,14200 fluorescence intensity (a.u.)
7,AAAGACAAATTTAGATATAAACAGTACGCTACTATTCATACGGAGTCACCTAGTGCAG,3170 fluorescence intensity (a.u.)
8,ATAATAAATCATAAAAGTTTGACTAAATCTTATCTTAATACGGAGTCACCTAGTGCAG,5610 fluorescence intensity (a.u.)
9,TTTTGAATGATCTAATACTTTGGACATCAACATTTTGTTGCGGAGTCACCTAGTGCAG,3250 fluorescence intensity (a.u.)
10,TGGTCTATAATTAACCTATCTGTAAAATCCATTGCCTTTTCGGAGTCACCTAGTGCAG,4400 fluorescence intensity (a.u.)
11,AGTATTAAATTGTATATTTAATATACAGAGGTACTCCCTCCGGAGTCACCTAGTGCAG,12700 fluorescence intensity (a.u.)
12,TAAAATAAATTATTATTCAATTACATCTCTTCTCTCTTCTCGGAGTCACCTAGTGCAG,13400 fluorescence intensity (a.u.)
13,CAACGGTCGATCAGCCGGTAATTGATCATATTTATCATTTCGGAGTCACCTAGTGCAG,5590 fluorescence intensity (a.u.)
14,CACCAAAATTGGAAGTTTGGTTAAAATTGGAACGATGTGACGGAGTCACCTAGTGCAG,5550 fluorescence intensity (a.u.)
15,TTGACTTGTACATAGTAATGATTGGCAGGTAATGACGTACCGGAGTCACCTAGTGCAG,24100 fluorescence intensity (a.u.)
16,CGTGTGGTTGATTGTGTGTGCGAGCCGAATGCTGCCTACTCGGAGTCACCTAGTGCAG,5510 fluorescence intensity (a.u.)
17,ACTAAATTTAGTTAATACATAAGAAATCCTACCAAAATTTCGGAGTCACCTAGTGCAG,4390 fluorescence intensity (a.u.)
18,CGTCGCTCAATTGGTTGTCTCCTGTGTCATCCCGGATTATCGGAGTCACCTAGTGCAG,3840 fluorescence intensity (a.u.)
19,AGATGATCTACTCTGTAAATTATCACGGTGAGCAGACAGGCGGAGTCACCTAGTGCAG,4940 fluorescence intensity (a.u.)
20,AAATCCCTGCTGATTGGAACGTTTTGACTAACTGTTTGGACGGAGTCACCTAGTGCAG,28800 fluorescence intensity (a.u.)
21,AACATTGATTATTAAATCGTTAAGGACACATCATATACAACGGAGTCACCTAGTGCAG,27600 fluorescence intensity (a.u.)

row,Sequence,binding signal
1,AGGTCATTTATCTATAACTAATTAACCGGTCACATCTACTCGGAGTCACCTAGTGCAG,12200 fluorescence intensity (a.u.)
2,ATTAATTTAGATGTTGTATTCATCAACCATCTCGGTCATCCGGAGTCACCTAGTGCAG,16100 fluorescence intensity (a.u.)
3,AAACAAATTACATATTCCACCTATAAACTGTGAGCTGAATCGGAGTCACCTAGTGCAG,7810 fluorescence intensity (a.u.)
4,ATTCACATATAGATTGGAAAACAAAGTAACATTTATAAAGCGGAGTCACCTAGTGCAG,3820 fluorescence intensity (a.u.)
5,TAACTAACTCTACCTAATTAATAGATATATTGACATGTCACGGAGTCACCTAGTGCAG,18200 fluorescence intensity (a.u.)
6,CTATAATTATTTGTCGACTAAATCTGCCTTTCATCTTTCTCGGAGTCACCTAGTGCAG,21400 fluorescence intensity (a.u.)
7,CCCACACGATTGACGCCGAGATTCGTGCTCTTGTACATAACGGAGTCACCTAGTGCAG,7210 fluorescence intensity (a.u.)
8,ATTACTGCTAATTAAAATGTGCAATGATATCTCTGATTTTCGGAGTCACCTAGTGCAG,10300 fluorescence intensity (a.u.)
9,GCAAATTGACATGTGCCATGGAGTATGGCAAGAAAAGATGCGGAGTCACCTAGTGCAG,46200 fluorescence intensity (a.u.)
10,ACTTGACAGGTGACACATTGTACATCTATGAGTTGCGGGTCGGAGTCACCTAGTGCAG,28000 fluorescence intensity (a.u.)
11,CCCAGGTAATTACGAACTAGTCCTTCTCCAGCCCGGCGACCGGAGTCACCTAGTGCAG,25000 fluorescence intensity (a.u.)
12,ACTAATATTCAATTAATCATATCGCTAGTCCTACTAATAGCGGAGTCACCTAGTGCAG,20500 fluorescence intensity (a.u.)
13,ATTAACACAAATCATACTGATCGTTCCGCACAGGAAGATACGGAGTCACCTAGTGCAG,11300 fluorescence intensity (a.u.)
14,GATAAAGAGAGATAATTATATTAAGGTTTGATTAAGTTAACGGAGTCACCTAGTGCAG,3680 fluorescence intensity (a.u.)
15,TGAGGTGATTGTGGTTGCAAAAGAGAGAGAATCTGGATGTCGGAGTCACCTAGTGCAG,12900 fluorescence intensity (a.u.)
16,AATAAACTGTGTCTATATTTATAATACTATAATATATCGTCGGAGTCACCTAGTGCAG,4270 fluorescence intensity (a.u.)
17,TACTACTAATTATTGTCTTCTTAGTAATCACCAAGTGTGCCGGAGTCACCTAGTGCAG,20700 fluorescence intensity (a.u.)
18,AAACTTAATAGGCTATAATAAGCGGACTGTATAAGTTTGTCGGAGTCACCTAGTGCAG,5760 fluorescence intensity (a.u.)
19,AGCTATAAATTTTCGTGTTTAATTTTAATCGTTCATTTTACGGAGTCACCTAGTGCAG,5370 fluorescence intensity (a.u.)
20,AATGGCTGTTTGTTCCTTGATTGCCACGTCTCTTTCCATCCGGAGTCACCTAGTGCAG,10300 fluorescence intensity (a.u.)
21,CGCTAATTAAGCTTAACGAAAATTATGGAGTATTAATCCACGGAGTCACCTAGTGCAG,36500 fluorescence intensity (a.u.)

# Reference: paper PMC7819943, “Rice protein-binding microarrays: a tool to detect cis-acting elements near promoter regions in rice”
